From PubChem BioAssay (NCI)
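Results reflect a 48-hour exposure of cells in 96-well plates to compound at five concentrations. GI50 is the concentration that inhibits growth by half. TGI denotes the concentration required for complete inhibition of growth.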

tested on: NCI-H322M lung; test: DTP human tumour cell line panel, 48 h

Structure (SMILES)	TGI [µM]	GI50 [µM]
NC(=O)C(c1ccccc1)N1OC2C(=O)N(Cc3ccccc3)C(=O)C2C1c1cccc(Oc2ccc(Cl)cc2)c1 (centres undefined)	> 100	
O=C(C/C(=N\NC(=O)C[n+]1ccccc1)C(=O)Nc1nc2ccc([N+](=O)[O-])cc2s1)CC(c1ccccc1)c1c(O)c2ccccc2oc1=O (centres undefined)	> 100	
O=C1c2ccccc2NC(c2cc(Cl)cc(Cl)c2O)N1CCc1ccccn1 (centres undefined)	> 100	
CC(=O)NC1=C(C)C(=O)c2c(nc3n2CCC3OC(=O)c2ccccc2)C1=N (centres undefined)	7.23	
COc1cc(/C=N/Nc2ncnc3c2cnn3C(C)C)ccc1O	> 25	12.3
COc1ccc(Cl)cc1Nc1nc(C(F)(F)F)ccc1C(=O)N/N=C/c1ccc([N+](=O)[O-])cc1	4.26	1.02
C=C1CC(Cn2ccc(=O)[nH]c2=O)(c2ccc(-c3ccccc3)cc2)OC1=O (centres undefined)	26	
COc1ccc(C(C#N)NC23CC4CC(CC(C4)C2)C3)cc1OC (centres undefined)	> 100	
Cc1ccc(N/C(Sc2ccccc2)=C(/C(Cl)=C(Cl)Cl)[N+](=O)[O-])c(C)c1	66.9	
CN1CCN(CCCOc2cccc3nc(Nc4ccc(Cl)c(F)c4)ccc23)CC1	4.28	1.7
COc1cc2c(c(OC)c1OC)C(=O)CC(c1cccc(NC(=O)c3ccc(Br)cc3)c1)O2 (centres undefined)	> 100	5.5
Cc1cc(N2CCN(C)CC2)nc(NCc2cc(Nc3ccnc4cc(Cl)ccc34)ccc2F)n1	8.49	2.07
[C-]#[O+].[Cl][Sn]([Cl])[Cl].[Cl][Sn]([Cl])[Cl].[Pt].c1ccc([PH+](c2ccccc2)c2ccccc2)cc1.c1ccc([PH+](c2ccccc2)c2ccccc2)cc1	90.1	36.5
O=C(CBr)N1CCC2(CC1)SSC1(CCN(C(=O)CBr)CC1)S2	7.86	
CN(Cc1cnc(N)nc1N)c1ccc(C(=O)O)cc1	> 100	> 100
O=C(/C=C/C12c3ccccc3C(c3ccccc31)C1C(=O)N(c3ccccc3)C(=O)C12)c1ccc(Cl)cc1 (centres undefined)	> 100	2.64
CC1=CCC2(C#N)CCC1C2O (centres undefined)	> 100	
NC1=NC(c2ccc(Cl)cc2)N(c2ccc(S(=O)(=O)Nc3ncccn3)cc2)C(N)=N1 (centres undefined)	> 100	
COc1ccc(C2=C(Cl)c3cc(OC)c(OC)cc3C2=O)cc1OC	> 100	
O[C@@]1(c2cccs2)c2cccc(Cl)c2[C@](O)(c2cccs2)c2cccc(Cl)c21	> 100	
COc1ccc(/C(CCl)=C(\Nc2ccccc2)c2ccc(OC)c(OC)c2)cc1OC	> 100	
COc1cc([N+](=O)[O-])c(S(=O)(=O)O)cc1NS(=O)(=O)c1ccc(C)cc1	> 100	
C=CCN1C(=O)CC1N(CC=C)S(=O)(=O)c1ccc(C)cc1 (centres undefined)	> 100	

Structure (SMILES)	TGI [µM]	GI50 [µM]
COC(=O)Nc1nc2ccc(Oc3ccc4nc(NC(=O)OC)[nH]c4c3)cc2[nH]1	> 100	
CC1(C)C(c2ccccc2)=NN(O)c2ccccc21	> 100	
CC1=C(C(=O)N[C@@H](Cc2ccccc2)C(=O)O)N2C(=O)[C@@H](NC(=O)[C@@H](N)CC(C)C)[C@H]2SC1	> 100	
COc1ccc(CN2C(=O)C(Cc3cc(OC)c(OC)c(C)c3OC)NC(=O)/C2=C/c2cc(OC)c(OC)c(C)c2OC)cc1 (centres undefined)	> 100	
CC[C@@]1(OC(=O)CN)C(=O)OCc2c1cc1n(c2=O)Cc2cc3cc4c(cc3nc2-1)OCO4	0.746	0.0103
N#CCCN(CCC#N)C(=O)c1cccc(C(=O)N(CCC#N)CCC#N)c1	> 100	
COc1ccc(C2=Nc3ccccc3SC(C)C2)cc1 (centres undefined)	> 100	
CC1(C)CC(=O)/C(=C/C2CCNC2=S)C(=O)N1 (centres undefined)	> 100	
CC(N=C(N)N)C(=O)O (centres undefined)	> 100	
CC(=O)[CH-]C(=O)c1ccccc1.CC(=O)[CH-]C(=O)c1ccccc1.COc1cccc([O-])c1[O-].[Ti+4]	> 100	73.9
Cn1c(NN)nc(-c2ccc([N+](=O)[O-])cc2)c(C#N)c1=O	27.3	
CC1=NN(c2nc(N)nc(/C(C#N)=C/c3ccc([N+](=O)[O-])o3)n2)C(C)(C)C1	> 55.9	
O=c1[nH]c(=O)n(C2CC(O)C(CO)O2)cc1OCCc1ccccc1 (centres undefined)	> 100	
CC(C)(C)N/N=C(\Cc1occc(=O)c1O)C(=O)Nc1ccc([N+](=O)[O-])cc1[N+](=O)[O-]	> 100	
CC1CC(C)[C@H](O)C([C@H](O)CC2CC(=O)N(C)C(=O)C2)C1 (some centres undefined)	> 100	
CCCN(CCCN)/[N+]([O-])=N\O	> 100	
COC(=O)/C=C/c1cnc2c(c1)oc(=O)n2CCc1ccccn1	> 100	
N=Nc1c(OC(=O)Nc2ccccc2)[nH]c2ccccc12	> 100	
O=C(N/C(=C\c1ccccc1[N+](=O)[O-])c1nc2ccccc2[nH]1)c1ccccc1	> 100	
[N-]=[N+]=Nc1ccc(CCN2CCN(c3cccc(C(F)(F)F)c3)CC2)cc1I	> 100	
O=c1cc(CO)n(CCc2c[nH]c3ccccc23)cc1O	> 100	
O=S1(=O)NNC(=NCc2ccc(Cl)c(Cl)c2)c2ccccc21	> 100	
CCn1nc(C)c2c1C(=O)NC(C)C(=O)N2 (centres undefined)	> 100	

Structure (SMILES)	TGI [µM]	GI50 [µM]
CCCCC1Cc2ccccc2-c2n1c1ccccc1[n+]2C (centres undefined)	> 100	
CC1C2=C(CC(C)(C)CC2=O)NC2=C1C(=O)CC(C)(C)C2	> 100	
Cc1csc(/C=N/NC(=O)c2nnn(-c3ccnc4c(C(F)(F)F)cccc34)c2C)c1	> 100	32.8
C=C[C@@H](OCOCC[Si](C)(C)C)[C@@H](CC)OC(CCCOC(=O)C(C)(C)C)OC (some centres undefined)	> 100	
FC(F)(F)c1nc2ccc(SSc3ccc4nc(C(F)(F)F)[nH]c4c3)cc2[nH]1	> 100	> 100
NC(=O)c1cc(-c2ccncc2)cc(-c2ccccc2)c1N	> 25	> 24.1
O=C(CC(=O)c1ccc([N+](=O)[O-])cc1)C(=O)Nc1nccs1	> 100	
COc1cc(O)c2c(=O)c(OC)c(-c3ccc4c(c3)OCO4)oc2c1	> 100	
CN(CCC#N)c1ccc(/C=C(\C#N)c2cccc(C(F)(F)F)c2)cc1	> 100	> 100
Cc1nc2ccccc2c(=O)n1/N=C(\N=Nc1cc(Cl)ccc1Cl)c1cccc(-c2ccco2)c1	> 100	
O=C1CSC(/C=C/c2ccccc2)N1c1ccc(-c2ccc(-n3c(-c4ccccc4)nc4ccccc4c3=O)cc2)cc1 (centres undefined)	> 100	
COc1cccc(C(=O)Nc2ccc(CN3CCc4nc5cc(OC)c(OC)cc5cc43)cc2)c1	> 100	10.4
CCC(C)C(C(=O)N/N=C1/SCC(=O)N1C)C(=O)N/N=C1/SCC(=O)N1C (centres undefined)	> 100	
Cc1c(C(=O)CC(=O)C(=O)Nc2c(C(C)C)cccc2C(C)C)[n+](=O)c2ccccc2n1[O-]	26.9	
Cn1cc(C2=C(c3c4n(c5ccccc35)CCCC4)C(=O)NC2=O)c2ccccc21	> 25	> 19.4
Nc1nc(Cl)c(N)c(NCC2(CO)CC(Cc3ccccc3)C2)n1 (centres undefined)	> 100	
CC1(C)C(c2ccccc2)C12CCC1(C2=O)C(c2ccccc2)C1(C)C (centres undefined)	> 100	
COC(=O)C1=C(OC(=O)/C(=C/c2ccc(Cl)cc2Cl)c2ccc(Cl)cc2Cl)C(C(=O)OC)[C@@]2(O)[C@@H](C(=O)OC)[C@H](C)C[C@@H]1[C@@H]2C(=O)OC (some centres undefined)	> 100	
O=C1NCN(c2ccccc2)C12CCN(CCc1ccc3[nH]c(=S)[nH]c3c1)CC2	> 100	
CNC(C)Cc1ccccc1O (centres undefined)	> 100	
O=C(/C=C1\C(=O)N(Cc2ccc([N+](=O)[O-])cc2)c2ccccc21)c1ccc(OCCN2CCCCC2)cc1	20	5.5
